Out of some 4,800 compounds screened, about 410 (8.5%) showed an effect of 50% or more. This is one part of the list.

The subject of this assay is Plasmodium falciparum. In words: Confirmatory screen in NF54 pLDH assay, in single point, at 2uM, 72h. It is filed as functional, Erythrocyte. Conditions: timepoint 72 hour.
One may read the % Inhibition as the relative decrease from the control value, in per cent. `CCCOc1ccc2c(c1)OCC(C(=O)N1CCC[C@H](C(N)=O)C1)=C2`: the “% Inhibition” value amounted to 3%.

With `CC(=O)N1CCCN(S(=O)(=O)Cc2ccccc2Cl)CCNC(=O)[C@@H]2CCC[C@@H]21`, the “% Inhibition” value is listed as 9%. As to `O=C1NC(=O)c2ccc3c4c(ccc1c24)C(=O)N(c1ccccc1)C3=O`, the “% Inhibition” value came to 35%.

On to `CN(C(=O)CN(CCO)c1ccc(Br)cc1)C1CC1`, for which the “% Inhibition” value stood at 2%. With `C[C@H]1[C@@H]2[C@@H](O)C([C@H](C)C(=O)NC3CCCCC3)CC[C@@]2(C)CC[C@@H]1NC(=O)CC(C)(C)C` (some centres undefined) the figure was 37%; with `N#Cc1c(NC(=O)Nc2cn3ccccc3c2C#N)cn2ccccc12`, 35%; with `O=C(CN1CCC(c2ccc(F)c(F)c2)CC1)NCc1cccnc1`, -8%. Under `Cc1ccc(C)c(NC(=O)CN2CCC3(CC2)NC(c2ccc(OC(F)(F)F)cc2)=NO3)c1` stands 6%; under `COCC(=O)N(C1CCOCC1)[C@H]1CCCN(Cc2c[nH]c3ccc(OC)cc23)C1`, -6%; under `NC(=O)CN1CCC2(CC1)NC(c1ccc(OC(F)(F)F)cc1)=NO2`, 5%.

For `COc1cc(Br)ccc1N`, the “% Inhibition” value amounted to 6%. Under `Cc1c2c(C(F)(F)F)cc(=O)n(CCC(=O)Nc3ncc(Cl)cc3Cl)c2nn1C` stands -7%; under `CCn1c(=O)c(N2CCC(C(=O)N3CCN(c4ccccc4F)CC3)CC2)nc2cccnc21`, -9%. `CC(C)Cc1nsc(NCc2ccc(O)cc2O)n1`: the “% Inhibition” value is on record as 0%. Under `Cc1cc(C)c2c(c1)[C@@H](C)CC(C)(C)N2C(=O)c1sc2ccccc2c1Cl` stands 5%; under `C[C@@H](C(=O)NCCN1CCCCC1)N1C(=O)COc2ccc(C(=O)COc3ccccc3Cl)cc21`, -20%; under `Cc1ccc(Cn2c(=O)c(N3CCC[C@H](C(=O)NCc4ccccc4F)C3)nc3ccccc32)cc1`, 13%. With `CC(C)CN1C(=O)CC[C@@H](C(=O)NCCCN2CCOCC2)[C@@H]1c1cccnc1` the figure was -17%. Under `COc1ccc(C(C)=O)c(O[C@@H](C)C(=O)NCC(F)(F)F)c1` stands -9%; under `O=S(=O)(Nc1ccc(O)c2cccnc12)N1CCCC1`, 36%. For `c1ccc2c[n+](Cc3ccc4ccccc4n3)ccc2c1`, the “% Inhibition” value was determined as 47%.

On to `CC(C)(C)c1cc2c(NCC3=CCOCC3)nccn2n1`, for which the “% Inhibition” value is listed as 9%. Under `N#Cc1cccnc1-n1cc(NC(=O)NCCC2(O)CCC2)cn1` stands -8%. Consider `COc1ccc(-c2nn(C3CCCC3)c(-c3ccc(OC)c(OC)c3)c2Cl)cc1OC`, for which the “% Inhibition” value is on record as -1%. With `CCOCCCNC/C=C/c1ccccc1` the figure was 2%; with `CCN(C(=O)Cn1c(=O)n(Cc2ccc(F)cc2)c(=O)c2ccccc21)c1cccc(C)c1`, 1%; with `Cc1ccc(N(C)CC(=O)N2CCC2)c(Br)c1`, -7%.

Take `O=C(Nn1cnc2ccccc2c1=O)c1cnccn1`: the “% Inhibition” value amounted to 5%. With `Cn1nc(C(=O)Nc2nnc[nH]2)ccc1=O` the figure was -6%; with `Cc1nonc1N(Cc1ccc(Cl)cc1Cl)S(=O)(=O)c1ccccc1`, -10%; with `Cn1nc(C(=O)NCc2ccc(F)cc2)cc1C(=O)NCc1ccc(F)cc1`, 2%.

Consider `O=C(c1ccccn1)N1CC(n2cnnc2[C@@H]2CCCO2)C1`, for which the “% Inhibition” value was -7%. Under `COCCN1C(=O)C[C@H](Nc2ccc3c(c2)CCC3)C1=O` stands 12%. On to `CCCNC(=O)C1=Cc2ccccc2OC=C1`, for which the “% Inhibition” value is reported as -12%. Under `CCC(C)(C)c1ccc(OCC(=O)Nc2cccc(C(=O)CC(=O)Nc3ccc(Oc4ccccc4)cc3)c2)c(C(C)(C)CC)c1` stands 1%; under `NC(=O)C1C(=O)NC(c2ccccc2)C=C1c1ccccc1` (centres undefined), 6%. With `O=S(=O)(Cc1ccon1)N1CCN(Cc2cccnc2)CC1` the figure was 6%; with `CS(=O)(=O)Cc1ccc(Cl)cc1NC1CCCC(C2CC2)C1` (centres undefined), 9%; with `CC1(C)C[C@](C)(c2ccc(N)cc2)c2cc(N)ccc21`, -13%. With `COC(c1ccc(-c2ccc(OC3CC3)cc2)cc1)C(C)N` (centres undefined) the figure was -14%; with `CN1CCC(n2ncc3[nH]c(-c4ccc(C(F)(F)F)cc4)nc32)CC1`, 99%; with `CCCC(=O)N1CCC(OC(=O)c2cnc3ccc(F)cc3c2)CC1`, -10%.

As to `CCN1C(=O)c2ccc(NC(=O)c3ccncc3)c3cccc1c23`, the “% Inhibition” value was 2%. With `O=C(N[C@@H](Cn1nccn1)c1ccccc1)c1cc(Br)ccc1Cl` the figure was 75%; with `Cc1cc(=O)n(CC(=O)N2CCC(C)CC2)c(-c2ccc(F)cc2)n1`, 4%. With `O=S1(=O)CCC(NCCC2CCCO2)c2cc(F)c(F)cc21` (centres undefined) the figure was -1%; with `O=C(C[C@H]1CCN(C(=O)c2ccc(F)cc2)C1)N1CCOCC1`, -6%.

For the compound `CN(C)C(=O)CN1CCc2cccc(NC(=O)OC(C)(C)C)c21`, the “% Inhibition” value stood at 12%. Under `CC(C)NC(=O)N(C)Cc1ccc(F)cc1` stands 8%. Under `O=C(NCC1CC1)c1cn[nH]c1-c1ccccc1` stands 1%; under `CC[C@H](C)S(=O)(=O)NC(=O)Cc1c(C)noc1C`, 10%; under `CC(C)CC[C@@H](CCNC1CCN(C)CC1)c1ccc(Cl)cc1`, 83%. Under `NC(=O)c1nnn(CC(=O)c2ccc(Cl)cc2)c1C(N)=O` stands 1%; under `O=C(NCCc1ccc(O)cc1)c1ccc2n[nH]c(=O)n2c1`, -20%; under `CCc1nnc(NC(=O)C2(C)COC(c3ccccc3)OC2)s1` (centres undefined), 5%. For `Cc1nc(NC(=O)NCCn2ncnn2)sc1C`, the “% Inhibition” value is 10%. Under `CC1=CC(C2CC(=O)N(c3ccc(Cl)cc3)C2=O)CC2C(=O)N(c3ccc(Cl)cc3)C(=O)C12` (centres undefined) stands 2%; under `Cn1cnnc1NC(=O)[C@@H]1CC=CCC1`, 3%; under `N#Cc1cnn2ccc(-c3ccc4c(c3)CCC4)nc12`, -2%. With `Cn1c(=O)c2ccnn2c2ccc(C(=O)NC3CCN(Cc4ccccc4)CC3)cc21` the figure was 11%; with `C[C@@H](c1cccs1)N(C)C(=O)CN1C(=O)COc2ccccc21`, 2%. Under `CN1CCN(CCc2nc(-c3ccc4cc[nH]c4c3)no2)CC1` stands 2%.

In the case of `O=C1CCC(C(=O)N2CCC[C@H]2c2ccncc2)=NN1c1ccccc1`, the “% Inhibition” value is listed as -11%. With `Cc1ccc(-c2csc(N3C(=O)CC4CS(=O)(=O)CC43)n2)cc1C` (centres undefined), the “% Inhibition” value is recorded as 9%. Under `Cc1cc(N2CCO[C@@H](Cn3cccn3)C2)c2ccc(F)c(F)c2n1` stands 5%. With `NC(=O)CN1CC2(CCCCC2)N(Cc2c(F)cccc2Cl)CC1=O` the figure was -10%; with `CCC1=C(c2ccc(C)cc2)S(=O)(=O)N=C1N1CCC(C(=O)NCCN2CCCC[C@@H]2C)CC1`, 38%; with `Brc1ccc(NCc2[nH]nnc2-c2ccccc2)cc1`, 14%. As to `Cc1cccc(N2CCN(C(=O)CCC3=Nc4cc(C(F)(F)F)ccc4S(=O)(=O)N3)CC2)c1C`, the “% Inhibition” value was found to be 12%. Take `CCOC(=O)N1CCN(C(=O)c2cnn3c(-c4ccc(C(C)C)cc4)ccnc23)CC1`: the “% Inhibition” value is on record as -5%. With `Cn1cc(C(=O)N2N=CC[C@]2(O)C(F)(F)F)cn1` the figure was 4%. Under `O=C(N[C@H](c1ccccc1)C1CC1)N1CCN(S(=O)(=O)c2cccc(F)c2)CC1` stands 10%. Under `CC1(C)CCC(Nc2ccc(C(N)=O)nn2)CC1` stands 92%; under `CNc1nc(N2C[C@H](C)[C@@](O)(C3CC3)C2)nc2c1CCC2`, 1%. With `Cc1onc(C(=O)N2CCC3(CC2)CC[C@]3(C)O)c1Cn1cccn1`, the “% Inhibition” value is 7%.

On to `O=C(Cn1c(=O)n(Cc2ccco2)c(=O)c2ccccc21)Nc1cccc(Br)c1`, for which the “% Inhibition” value came to 9%. With `O=C(CCC1CCCCC1)Nc1ncccn1` the figure was -9%; with `Cc1cccc(OC[C@@H](O)Cn2cnc(C)c(C)c2=O)c1`, 5%; with `Oc1csc(Cc2nc(C(F)(F)F)cs2)n1`, -4%.

Regarding `CC(C)(C)c1ccnc(N[C@H]2CO[C@H]3[C@@H]2OC[C@@H]3NC(=O)NCc2ccccc2)n1`, the “% Inhibition” value was 9%.

On to `CC1CCN(c2nc3c(c(Oc4cccc(F)c4)n2)CN(Cc2ccccn2)CC3)CC1`, for which the “% Inhibition” value is 21%. `COCCCN1CC(=O)N[C@@H]2CN(C(=O)CCc3cccnc3)CC[C@@H]2OCc2cccc(c2)Oc2cc(ccc2OC)C1`: the “% Inhibition” value amounted to 11%. With `COCc1cc(C)n(CC#N)c(=O)c1C#N` the figure was 16%; with `Cc1ccc(NC(=O)c2c(C)nc3sc(C(=O)NCc4ccccc4)c(N)c3c2-c2ccccc2Cl)c(C)c1`, 87%. For `Cc1cccc(Nc2nc(-c3cnc(N4CCN(C)CC4)nc3C)cc(=O)[nH]2)c1`, the “% Inhibition” value turned out to be 4%.

In the case of `CCn1c(-c2cc(NC(=O)c3ccc4c(c3)OCO4)[nH]n2)cc2ccc(OC)cc21`, the “% Inhibition” value came to 4%. Under `O=S(=O)(c1ccc(Cl)s1)N1CCC(N2CCc3sccc3C2)CC1` stands 44%; under `CC(C)C(NC(=O)COc1ccccc1)C(=O)NCC(c1ccccc1Cl)c1c[nH]c2ccccc12` (centres undefined), 36%; under `CCC[C@H](C)c1nc(N2CCN(C(=O)Cc3ccc(OC)cc3)CC2)c2cnn(-c3ccccc3)c2n1`, 9%.

As for `CCN(CC)c1ccc(NS(=O)(=O)c2ccc(N3C(=O)[C@@H](C)CS3(=O)=O)cc2)cc1`, the “% Inhibition” value turned out to be 9%. Under `c1cn2cnnc2c(N(CC2CC2)CC2CC2)n1` stands -5%.

Take `Cc1ccc(N2CCN(c3ncc4c(=O)n(-c5ccc6c(c5)OCO6)c(=O)[nH]c4n3)CC2)cc1`: the “% Inhibition” value is on record as -16%. With `Cc1cc(-n2c(C)cc(C(=O)Cn3c(C(F)(F)F)ccc(C(N)=O)c3=O)c2C)no1` the figure was 23%; with `COc1ccc2cc3n(c2c1)C[C@](C(=O)NC1CCCCCC1)(c1ccccc1)N(Cc1ccccc1Cl)C3=O`, 13%; with `COc1ccc([C@@H]2C=C(c3ccc(Cl)cc3)N=C3NC(NC(=O)c4ccccc4OC)=NN32)cc1`, 89%.

In the case of `O=S(=O)(Cc1cc(O)n(-c2ccccc2)n1)c1ccccc1`, the “% Inhibition” value is -4%. Under `CC[n+]1c(C)n(C2CCCCC2)c2ccc(C(=O)OC)cc21` stands 1%; under `O=S(=O)(N[C@H]1CCc2nnc(-c3ccc(F)cc3)n2C1)c1cccnc1`, 13%; under `Cc1noc(-c2csc(-c3c[nH]cn3)n2)n1`, -1%.

Values taken from ChEMBL document CHEMBL4888484, “Replenishing the malaria drug discovery pipeline: Screening and hit evaluation of the MMV Hit Generation Library 1 (HGL1) against asexual blood stage Plasmodium falciparum ,using a nano luciferase reporter read-out” (2022).
